# Source: the supplement of paper PMC8728848
# The list shows a part of the results.
# How the values were obtained:
# Test in all cases: glycan array binding signal (z-score within array); higher = stronger binding
# Settings in all cases: glycan notation: IUPAC condensed, linker removed
# [1] = target: Fuc(a1-2)[GalNAc(a1-3)]Gal(b1-3)GalNAc(b1-3)Gal(a1-4)Gal(b1-4)Glc
# Method in brief: (§1)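 The Consortium for Functional Glycomics database supplied 3228 glycan arrays, of which those lacking an available protein sequence were dropped. The binding signal, a within-array Z-score, was averaged across arrays of the same protein sequence and across linkers. Negative scores can be read as non-binding.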
# [2] = target: Fuc(a1-2)[GalNAc(a1-3)]Gal(b1-3)GlcNAc
# Method in brief: as §1
# [3] = target: Fuc(a1-2)[GalNAc(a1-3)]Gal(b1-3)GlcNAc(b1-2)Man(a1-3)[Fuc(a1-2)[GalNAc(a1-3)]Gal(b1-3)GlcNAc(b1-2)Man(a1-6)]Man(b1-4)GlcNAc(b1-4)GlcNAc
# Method in brief: as §1
# [4] = target: Fuc(a1-2)[GalNAc(a1-3)]Gal(b1-3)GlcNAc(b1-2)Man(a1-3)[Fuc(a1-2)[GalNAc(a1-3)]Gal(b1-3)GlcNAc(b1-2)Man(a1-6)]Man(b1-4)GlcNAc(b1-4)[Fuc(a1-6)]GlcNAc
# Method in brief: as §1
# [5] = target: Fuc(a1-2)[GalNAc(a1-3)]Gal(b1-3)GlcNAc(b1-3)GalNAc
# Method in brief: as §1
# [6] = target: Fuc(a1-2)[GalNAc(a1-3)]Gal(b1-3)GlcNAc(b1-6)GalNAc
# Method in brief: as §1
# [7] = target: Fuc(a1-2)[GalNAc(a1-3)]Gal(b1-4)Glc
# Method in brief: as §1
# [8] = target: Fuc(a1-2)[GalNAc(a1-3)]Gal(b1-4)GlcNAc
# Method in brief: as §1
# [9] = target: Fuc(a1-2)[GalNAc(a1-3)]Gal(b1-4)GlcNAc(b1-2)Man
# Method in brief: as §1
# [10] = target: Fuc(a1-2)[GalNAc(a1-3)]Gal(b1-4)GlcNAc(b1-2)Man(a1-3)[Fuc(a1-2)[GalNAc(a1-3)]Gal(b1-4)GlcNAc(b1-2)Man(a1-6)]Man(b1-4)GlcNAc(b1-4)GlcNAc
# Method in brief: as §1
# [11] = target: Fuc(a1-2)[GalNAc(a1-3)]Gal(b1-4)GlcNAc(b1-2)Man(a1-3)[Fuc(a1-2)[GalNAc(a1-3)]Gal(b1-4)GlcNAc(b1-2)Man(a1-6)]Man(b1-4)GlcNAc(b1-4)[Fuc(a1-6)]GlcNAc
# Method in brief: as §1
# [12] = target: Fuc(a1-2)[GalNAc(a1-3)]Gal(b1-4)GlcNAc(b1-3)Gal(b1-4)GlcNAc
# Method in brief: as §1
# [13] = target: Fuc(a1-2)[GalNAc(a1-3)]Gal(b1-4)GlcNAc(b1-3)Gal(b1-4)GlcNAc(b1-3)Gal(b1-4)GlcNAc
# Method in brief: as §1
# [14] = target: Fuc(a1-2)[GalNAc(a1-3)]Gal(b1-4)GlcNAc(b1-3)GalNAc
# Method in brief: as §1
# [15] = target: Fuc(a1-2)[GalNAc(a1-3)]Gal(b1-4)GlcNAc(b1-3)[Fuc(a1-2)[GalNAc(a1-3)]Gal(b1-4)GlcNAc(b1-6)]GalNAc
# Method in brief: as §1
# [16] = target: Fuc(a1-2)[GalNAc(a1-3)]Gal(b1-4)GlcNAc(b1-6)GalNAc
# Method in brief: as §1
# [17] = target: Fuc(a1-2)[GalNAc(a1-3)]Gal(b1-4)[Fuc(a1-3)]GlcNAc
# Method in brief: as §1
# [18] = target: Fuc(a1-2)[GalNAc(a1-3)]Gal(b1-4)[Fuc(a1-3)]GlcNAc(b1-3)GalNAc
# Method in brief: as §1
# [19] = target: Fuc(a1-2)[GalNAc(a1-4)]Gal(b1-4)GlcNAc
# Method in brief: as §1
# [20] = target: Fuc(a1-2)[GalNAc(b1-3)]Gal
# Method in brief: as §1
# Fuc(a1-3)GlcNAc = target: Fuc(a1-3)GlcNAc
# Method in brief: as §1
# [21] = target: Fuc(a1-3)[Gal(b1-4)]Glc6S
# Method in brief: as §1
# [22] = target: Fuc(a1-3)[Gal(b1-4)]GlcNAc
# Method in brief: as §1
# [23] = target: Fuc(a1-3)[Gal(b1-4)]GlcNAc(b1-2)Man
# Method in brief: as §1
# [24] = target: Fuc(a1-3)[Gal(b1-4)]GlcNAc(b1-2)Man(a1-3)[Fuc(a1-3)[Gal(b1-4)]GlcNAc(b1-2)Man(a1-6)]Man(b1-4)GlcNAc(b1-4)GlcNAc
# Method in brief: as §1
# [25] = target: Fuc(a1-3)[Gal(b1-4)]GlcNAc(b1-2)Man(a1-3)[Fuc(a1-3)[Gal(b1-4)]GlcNAc(b1-2)Man(a1-6)]Man(b1-4)GlcNAc(b1-4)[Fuc(a1-6)]GlcNAc
# Method in brief: as §1
# [26] = target: Fuc(a1-3)[Gal(b1-4)]GlcNAc(b1-3)Gal(b1-3)[Fuc(a1-4)]GlcNAc
# Method in brief: as §1
# [27] = target: Fuc(a1-3)[Gal(b1-4)]GlcNAc(b1-3)Gal(b1-4)[Fuc(a1-3)]GlcNAc
# Method in brief: as §1
# [28] = target: Fuc(a1-3)[Gal(b1-4)]GlcNAc(b1-3)Gal(b1-4)[Fuc(a1-3)]GlcNAc(b1-3)Gal(b1-4)[Fuc(a1-3)]GlcNAc
# Method in brief: as §1
# [29] = target: Fuc(a1-3)[Gal(b1-4)]GlcNAc(b1-3)GalNAc
# Method in brief: as §1
# [30] = target: Fuc(a1-3)[Gal(b1-4)]GlcNAc(b1-4)Gal(b1-4)[Fuc(a1-3)]GlcNAc
# Method in brief: as §1
# [31] = target: Fuc(a1-3)[Gal(b1-4)]GlcNAc(b1-4)Gal(b1-4)[Fuc(a1-3)]GlcNAc(b1-4)Gal(b1-4)[Fuc(a1-3)]GlcNAc
# Method in brief: as §1
# [32] = target: Fuc(a1-3)[Gal(b1-4)]GlcNAc(b1-6)GalNAc
# Method in brief: as §1
# [33] = target: Fuc(a1-3)[Gal(b1-4)]GlcNAc(b1-6)[Gal(b1-3)GlcNAc(b1-3)]Gal(b1-4)Glc
# Method in brief: as §1
# [34] = target: Fuc(a1-3)[Gal(b1-4)]GlcNAc(b1-6)[Neu5Ac(a2-3)Gal(b1-3)]GalNAc
# Method in brief: as §1
# [35] = target: Fuc(a1-3)[Gal(b1-4)]GlcNAc6S
# Method in brief: as §1
# [36] = target: Fuc(a1-3)[Gal3S(b1-4)]Glc
# Method in brief: as §1
binder,measurement,setting,value
PpFlo2 (Pichia pastoris) (protein) MGSSHHHHHHSSGLVPRGSHMDDSGNGDNSDTAYGCDITTNAVDGFDATIYQYNANDLRLIRDPTFMSTGYLGRNVLNKISGVTVPGFNIWNPSSRTATVYGVKNVNYYNMVLELKGYFKADVSGDYKLTLSHIDDSSMLFFGKETAFKCCDAGSIPLNEAPTDYSLFTIKPSNQVNSEVISATQYLEAGKYYPVRIVFVNALERARFDFKLTIPSGAVLDDFQNYIYQFGDLDENSCHE,glycan array binding signal (z-score),[1],-0.273
same,glycan array binding signal (z-score),[2],-0.297
same,glycan array binding signal (z-score),[3],-0.287
same,glycan array binding signal (z-score),[4],-0.284
same,glycan array binding signal (z-score),[5],-0.292
same,glycan array binding signal (z-score),[6],-0.275
same,glycan array binding signal (z-score),[7],-0.302
same,glycan array binding signal (z-score),[8],-0.3
same,glycan array binding signal (z-score),[9],-0.27
same,glycan array binding signal (z-score),[10],-0.231
same,glycan array binding signal (z-score),[11],-0.3
same,glycan array binding signal (z-score),[12],-0.298
same,glycan array binding signal (z-score),[13],-0.2
same,glycan array binding signal (z-score),[14],-0.295
same,glycan array binding signal (z-score),[15],-0.07
same,glycan array binding signal (z-score),[16],-0.27
same,glycan array binding signal (z-score),[17],-0.291
same,glycan array binding signal (z-score),[18],-0.221
same,glycan array binding signal (z-score),[19],-0.3
same,glycan array binding signal (z-score),[20],-0.278
same,glycan array binding signal (z-score),Fuc(a1-3)GlcNAc,-0.292
same,glycan array binding signal (z-score),[21],-0.301
same,glycan array binding signal (z-score),[22],-0.296
same,glycan array binding signal (z-score),[23],-0.276
same,glycan array binding signal (z-score),[24],-0.288
same,glycan array binding signal (z-score),[25],-0.301
same,glycan array binding signal (z-score),[26],-0.217
same,glycan array binding signal (z-score),[27],-0.04
same,glycan array binding signal (z-score),[28],-0.238
same,glycan array binding signal (z-score),[29],-0.287
same,glycan array binding signal (z-score),[30],0.371
same,glycan array binding signal (z-score),[31],-0.228
same,glycan array binding signal (z-score),[32],-0.298
same,glycan array binding signal (z-score),[33],-0.249
same,glycan array binding signal (z-score),[34],-0.343
same,glycan array binding signal (z-score),[35],-0.297
same,glycan array binding signal (z-score),[36],-0.263
